In PubChem BioAssay AID686970 (National Center for Advancing Translational Sciences (NCATS), 2013):
Screen size: about 360,000 compounds; about 6,000 (1.7%) were called active. The shares of active, inactive and inconclusive entries below differ from those in the screen. Calls come from the whole dose curve; as a rule, active = well fitted cell-killing curve with a large enough effect; inconclusive = small, poorly fitted or top-dose-only effect, or effect the other way; inactive = flat fitted curve, though single readings scatter. Potencies of inconclusive entries are left out as doubtful fits.

Experiment: qHTS for induction of synthetic lethality in tumor cells producing 2HG: qHTS for the HT-1080-NT fibrosarcoma cell line;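 note: NT is the 2HG producing partner of a matched IDH1 knockdown line; nearly all actives have a fitted effect of over 55% in size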;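 for activity, negative = less viability: 0% = DMSO-treated cells and -100% = media-only wells without cells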
Details: HT-1080-NT fibrosarcoma viability, CellTiter-Glo ATP luminescence, 48 h; activity, negative = less viability: at 46.1 µM (top of the series) unless noted
How it was run: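 Luminescent CellTiter-Glo readout after 48 hours of compound exposure at 37 degrees C defined viability of HT-1080-NT cells. Activity was normalized to DMSO wells and cell-free media wells; concentration-response curves were fitted and assigned curve classes.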
Potency is the fitted concentration of half-maximal effect; tags give direction and shape of the fitted curve.

**Q.** With `CN(C(=O)CCl)C1CCCc2ccccc21` (stereo not given) as the molecule, how does the Potency read?
**A.** inconclusive [cytotoxic, single point]

**Q.** For `COc1ccc(C(=O)Nc2cc(Cl)ccc2C(=O)O)cc1`, which “activity, negative = less viability” value is on record?
**A.** inactive: -8.19%

**Q.** Which “activity, negative = less viability” value does the source give for `Cc1cccc(S(=O)(=O)NC(=O)C2(C)CCN2C(=O)Cc2cc(F)ccc2F)c1` (stereo not given) here?
**A.** inactive: 4.83%

**Q.** With `Oc1ccc(N=Nc2c(O)ccc3ccccc23)cc1` as the molecule, how does the Potency read?
**A.** active: 11.2 µM

**Q.** Which Potency does the source give for `CCOC(=O)C(C)(C)N(Cc1ccc(C)cc1)S(=O)(=O)c1ccc(Cl)c([N+](=O)[O-])c1` here?
**A.** inconclusive [cytotoxic, single point]

**Q.** With `O=C(Nc1ccc(Oc2cccc(C(F)(F)F)c2)nc1)c1ccccc1` as the molecule, how does the activity, negative = less viability read?
**A.** inconclusive: -10.1%

**Q.** With `O=[N+]([O-])c1ccc(-c2ccc(/C=N/c3c(-c4ccco4)nc4ccccn34)o2)cc1` as the molecule, how does the Potency read?
**A.** inconclusive [cytotoxic, single point]

**Q.** With `Clc1ccc(-c2nnc(C34CC5CC(CC(C5)C3)C4)o2)cn1` as the molecule, how does the “activity, negative = less viability” value read?
**A.** inactive: 22.1%

**Q.** For `COc1ccc(C(=O)Nc2cnn(Cc3ccc(Cl)cc3)c2)cc1OC`, which Potency is on record?
**A.** inconclusive [cytotoxic, full curve]

**Q.** Which Potency does the source give for `Clc1nc(NC2CCCCC2)c2cn[nH]c2n1` here?
**A.** inconclusive [cytotoxic, partial curve, poor fit]

**Q.** For `COc1ccc(CSC(=S)NNc2ccccc2)cc1`, which Potency is on record?
**A.** inconclusive [cytotoxic, single point]

**Q.** With `CCCN1CCN(C(=O)C2CCN(c3nnc(C)c4c(C)n(-c5ccc(C)cc5)nc34)CC2)CC1` as the molecule, how does the Potency read?
**A.** inconclusive [cytotoxic, single point]

**Q.** For `Cc1ccc(S(=O)(=O)N2C[C@H]3n4c(=O)ccc(=O)n4C[C@H](OC(=O)NCc4ccccc4)[C@@]3(O)C2)cc1`, which Potency is on record?
**A.** inconclusive [cytotoxic, single point]

**Q.** For `CC1CCCN(CCOCCOc2ccc(Br)cc2Cl)C1` (stereo not given), which Potency is on record?
**A.** inconclusive [cytotoxic, single point]

**Q.** Which Potency does the source give for `O=c1[nH]c2ccccc2nc1N1CCOCC1` here?
**A.** inconclusive [rising, full curve]

**Q.** For `Cn1cc(CC(=O)NCCN2CCOCC2)c2ccccc21`, which Potency is on record?
**A.** inconclusive [cytotoxic, partial curve]

**Q.** With `Cc1ccc(OC[C@H](O)[C@H](C)NC(C)C)c2c1CCC2` as the molecule, how does the Potency read?
**A.** inconclusive [cytotoxic, partial curve]

**Q.** For `COc1ccccc1N1CCN(C(=O)c2ccc3[nH]c(C)c(C)c3c2)CC1`, which Potency is on record?
**A.** active: 1.46 µM

**Q.** With `O=C(Cc1cc(=O)[nH][nH]1)N/N=C/c1cccc(Cl)c1Cl` as the molecule, how does the Potency read?
**A.** inactive

**Q.** For `O=C(OCCOc1cccc(Cl)c1)c1cc(S(=O)(=O)N2CCCCC2)ccc1N1CCOCC1`, which “activity, negative = less viability” value is on record?
**A.** inactive: -7.24%

**Q.** With `COc1ccc(/C(N)=N/OC(=O)CCc2ccccc2)cc1` as the molecule, how does the Potency read?
**A.** inconclusive [rising, single point]

**Q.** Which “activity, negative = less viability” value does the source give for `C=CC[n+]1c(-c2ccccc2)csc1NC(C)(C)C` here?
**A.** inactive: 1.16%

**Q.** Which Potency does the source give for `CCn1c2ccccc2c2cc(/C=N/n3cnnc3)ccc21` here?
**A.** inconclusive [cytotoxic, single point]

**Q.** With `COc1cccc(NC(=O)C2CCC(CNS(=O)(=O)c3cccs3)CC2)c1` (stereo not given) as the molecule, how does the Potency read?
**A.** inconclusive [cytotoxic, single point]

**Q.** For `CCOC(=O)c1ccc([N+](=O)[O-])cc1NC(C)=O`, which “activity, negative = less viability” value is on record?
**A.** inactive: -0.355%

**Q.** For `Cc1ccc(-c2nc(C3CCN(S(=O)(=O)c4ccc(C(F)(F)F)cc4)CC3)no2)cc1`, which “activity, negative = less viability” value is on record?
**A.** inactive: 19.2%

**Q.** For `CC(C)(C)NC(=O)C(c1cccc2ccccc12)n1c(=O)c(-c2ccco2)nc2ccccc21` (stereo not given), which “activity, negative = less viability” value is on record?
**A.** inactive: -11.8%

**Q.** Which Potency does the source give for `COc1cc(C2C=C(c3cccs3)Nc3ncnn32)cc(OC)c1OC` (stereo not given) here?
**A.** inconclusive [cytotoxic, full curve, poor fit]

**Q.** With `CCc1nc2oc3ccccc3c(=O)c2c(=O)n1-c1ccccc1` as the molecule, how does the Potency read?
**A.** inconclusive [cytotoxic, partial curve, poor fit]

**Q.** With `COC(=O)[C@@]1(Cc2ccc(F)cc2)[C@H]2c3cc(C(=O)N(C)C)n(Cc4ccccc4)c3C[C@H]2CN1C(=O)c1ccccc1` as the molecule, how does the Potency read?
**A.** inconclusive [cytotoxic, single point]

**Q.** With `O=C(O)CCCCCn1c(SCc2cc(=O)n3cc(Cl)ccc3n2)nc2ccsc2c1=O` as the molecule, how does the Potency read?
**A.** inconclusive [cytotoxic, partial curve]

**Q.** For `COc1ccc(S(=O)(=O)N2CCOc3ccccc32)cc1`, which Potency is on record?
**A.** inconclusive [cytotoxic, partial curve]

**Q.** With `CC[C@@H](C)[C@H](NC(=O)OC(C)(C)C)c1nnc(S(=O)(=O)Cc2cc(C)ccc2C)o1` as the molecule, how does the Potency read?
**A.** active: 16.4 µM

**Q.** With `CC(C)Oc1ccccc1C1CC(=O)Nc2cc3c(cc21)OCCO3` (stereo not given) as the molecule, how does the Potency read?
**A.** active: 1 µM

**Q.** With `CCOC(=O)c1ccc(-c2c(-c3cc(OC)c(OC)c(OC)c3)noc2C)cc1F` as the molecule, how does the Potency read?
**A.** inconclusive [cytotoxic, full curve]

**Q.** For `C/C(CCC1CC(C)OC1=O)=N/Nc1nc(-c2ccccc2)cs1` (stereo not given), which Potency is on record?
**A.** inconclusive [cytotoxic, single point]

**Q.** With `COc1ccc(Oc2nnnn2-c2ccccc2)cc1` as the molecule, how does the Potency read?
**A.** inconclusive [rising, full curve]

**Q.** For `Cc1oc(-c2ccc(Cl)cc2)nc1CN1CCCC(C(=O)NCc2ccccn2)C1` (stereo not given), which “activity, negative = less viability” value is on record?
**A.** inactive: -11%

**Q.** With `O=S(=O)(Nc1cc2nc3ccccc3nc2n1Cc1ccccc1)c1ccc(Cl)cc1` as the molecule, how does the Potency read?
**A.** inconclusive [cytotoxic, single point]

**Q.** For `CNC(=O)N1c2ccccc2CCc2ccccc21`, which “activity, negative = less viability” value is on record?
**A.** inactive: 1.93%

**Q.** Which Potency does the source give for `Nc1ncc(-c2ccccc2)c(-c2ccc(O)cc2O)n1` here?
**A.** inconclusive [cytotoxic, single point]

**Q.** With `Cc1ccccc1N/C(SCc1ccc(Cl)cc1)=C(/C#N)C(N)=O` as the molecule, how does the Potency read?
**A.** inconclusive [cytotoxic, single point]

**Q.** With `COc1cccc(C2=Cc3ccc(F)cc3C(CC(C)=O)N2c2ccc(C#CC3(O)CCCCC3)cc2)c1` (stereo not given) as the molecule, how does the Potency read?
**A.** inconclusive [cytotoxic, single point]

**Q.** Which Potency does the source give for `CN1CCCC1CCOC(C)(c1ccccc1)c1ccc(Cl)cc1` (stereo not given) here?
**A.** active: 16.4 µM

**Q.** For `N#Cc1ccc(NC(=O)Nc2ccc(Cl)cc2)cc1`, which Potency is on record?
**A.** active: 14.6 µM

**Q.** For `CCCCNc1c2c3c(cccc3n(C)c1=O)C(=O)c1ccccc1-2`, which Potency is on record?
**A.** inconclusive [cytotoxic, single point]

**Q.** Which “activity, negative = less viability” value does the source give for `COc1ccc(O)c(C2=Nc3ccccc3N=C(c3ccco3)C2)c1` here?
**A.** inactive: -21.3%

**Q.** With `CN(C)c1ccc(-c2[nH][nH]c(=O)c2NC(=O)c2ccc3ccccc3n2)cc1` as the molecule, how does the Potency read?
**A.** inconclusive [cytotoxic, single point]

**Q.** With `CC[C@H](C)[C@H](NC(=O)c1ccc(Cl)cc1)C(=O)OCC(=O)c1ccc2c(c1)NC(=O)CO2` as the molecule, how does the Potency read?
**A.** inconclusive [cytotoxic, single point]

**Q.** With `NC1=NC[C@H](c2ccccc2)N1CCc1cc(C(F)(F)F)cc(C(F)(F)F)c1` as the molecule, how does the Potency read?
**A.** inconclusive [cytotoxic, single point]

**Q.** Which Potency does the source give for `Cc1ccc(C(=O)/C=C/c2cc(Br)cc(Br)c2O)o1` here?
**A.** inconclusive [cytotoxic, single point]

**Q.** Which “activity, negative = less viability” value does the source give for `COc1ccc(S(=O)(=O)N2CCN(CCOc3ccccc3Cl)CC2)cc1OC` here?
**A.** inactive: 1.89%

**Q.** Which Potency does the source give for `Cc1cccc(C)c1OCc1nnc(SCC(=O)Nc2nccs2)n1-c1ccccc1` here?
**A.** inconclusive [cytotoxic, single point]

**Q.** With `CN(C)CCNS(=O)(=O)c1ccc(N2CCN(c3ccc(F)cc3)CC2)c([N+](=O)[O-])c1` as the molecule, how does the Potency read?
**A.** inconclusive [cytotoxic, single point]

**Q.** For `NC1=NC2=C(CCCC2)C2(CCCCC2)S1`, which Potency is on record?
**A.** inconclusive [cytotoxic, single point]

**Q.** Which Potency does the source give for `COc1ccc(C)c2sc(N(CCCN(C)C)C(=O)c3ccc(S(=O)(=O)N4CCc5ccccc5C4)cc3)nc12` here?
**A.** inconclusive [cytotoxic, single point]

**Q.** With `C[C@@H]1CC=C[C@H]2[C@H]1C(=O)N(Cc1ccccc1)[C@H]2c1ccc(F)c(/C=C/c2ccccc2)c1` as the molecule, how does the Potency read?
**A.** inconclusive [cytotoxic, single point]

**Q.** For `CC(C)c1ccc(NC(=O)COC(=O)/C=C/c2cccc(Br)c2)cc1`, which “activity, negative = less viability” value is on record?
**A.** inactive: -5.22%

**Q.** With `CC(C)(C)OC(=O)C[C@@H]1C/C=C\C[C@H](CC(=O)N[C@@H](CO)Cc2ccccc2)C(=O)N[C@H](C(C)(C)C)COC1=O` as the molecule, how does the “activity, negative = less viability” value read?
**A.** inactive: 8.94%

**Q.** For `O=c1c2cc(F)ccc2sn1-c1ccccc1`, which Potency is on record?
**A.** inconclusive [cytotoxic, single point]

**Q.** With `Cc1ccc(NC(=O)Nc2cccc([N+](=O)[O-])c2)cc1F` as the molecule, how does the Potency read?
**A.** active: 14.6 µM

**Q.** Which Potency does the source give for `Cc1c(Cc2ccc3c(c2)OCO3)sc(NC(=O)c2ccccc2)c1C(N)=O` here?
**A.** inconclusive [cytotoxic, single point]

**Q.** For `C#CCOc1ccc(/C=C2/C(=O)NN(c3ccccc3)C2=O)cc1OC`, which activity, negative = less viability is on record?
**A.** inconclusive: -30.1% [cytotoxic]

**Q.** Which Potency does the source give for `O=c1c2ccccc2sn1-c1nccs1` here?
**A.** inconclusive [cytotoxic, single point]

**Q.** With `COc1cccc(NC(=O)N(C)C[C@H]2Oc3ncc(Br)cc3C(=O)N([C@H](C)CO)C[C@H]2C)c1` as the molecule, how does the “activity, negative = less viability” value read?
**A.** inactive: 6.01%

**Q.** For `O=C(CN1CCN(C(=O)c2ccc(OCc3cn4ccccc4n3)cc2)CC1)Nc1cccc(F)c1`, which Potency is on record?
**A.** active: 7.31 µM

**Q.** With `O=C(CNc1ccc(Br)cc1)c1ccc(O)cc1` as the molecule, how does the activity, negative = less viability read?
**A.** inconclusive: -11.4% [cytotoxic]

**Q.** For `O=C1CC(N2CCSCC2)C(=O)N1CCc1ccccc1` (stereo not given), which Potency is on record?
**A.** inconclusive [rising, partial curve]

**Q.** With `CC1C(=O)N(Cc2ccccc2F)c2ccccc2N1C(=O)c1c(F)cccc1F` (stereo not given) as the molecule, how does the “activity, negative = less viability” value read?
**A.** inactive: -0.599%

**Q.** With `O=C(c1ccc2c(c1)N(Cc1cccc(Cl)c1)C(=O)c1ccccc1S2(=O)=O)N1CCN(c2ccccn2)CC1` as the molecule, how does the Potency read?
**A.** inconclusive [rising, single point]
